# Laboratory results as given in article PMC4336329 (PLoS ONE, 2015).
# The whole screen tested about 310,000 compounds, of which about 14,000 (4.5%) showed an effect of 50% or more. Effects have a minus sign here. The list shows a part of the results.
# Molecular target: human ether-à-go-go-related gene (hERG) potassium channel (human, UniProt Q12809)
# Test: primary screen, population patch clamp on CHO cells stably expressing hERG
# 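Also: peak tail current of the secondary pulse compared with the same well before compound.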
# Chain of human ether-à-go-go-related gene (hERG) potassium channel (Q12809 whole entry, looked up): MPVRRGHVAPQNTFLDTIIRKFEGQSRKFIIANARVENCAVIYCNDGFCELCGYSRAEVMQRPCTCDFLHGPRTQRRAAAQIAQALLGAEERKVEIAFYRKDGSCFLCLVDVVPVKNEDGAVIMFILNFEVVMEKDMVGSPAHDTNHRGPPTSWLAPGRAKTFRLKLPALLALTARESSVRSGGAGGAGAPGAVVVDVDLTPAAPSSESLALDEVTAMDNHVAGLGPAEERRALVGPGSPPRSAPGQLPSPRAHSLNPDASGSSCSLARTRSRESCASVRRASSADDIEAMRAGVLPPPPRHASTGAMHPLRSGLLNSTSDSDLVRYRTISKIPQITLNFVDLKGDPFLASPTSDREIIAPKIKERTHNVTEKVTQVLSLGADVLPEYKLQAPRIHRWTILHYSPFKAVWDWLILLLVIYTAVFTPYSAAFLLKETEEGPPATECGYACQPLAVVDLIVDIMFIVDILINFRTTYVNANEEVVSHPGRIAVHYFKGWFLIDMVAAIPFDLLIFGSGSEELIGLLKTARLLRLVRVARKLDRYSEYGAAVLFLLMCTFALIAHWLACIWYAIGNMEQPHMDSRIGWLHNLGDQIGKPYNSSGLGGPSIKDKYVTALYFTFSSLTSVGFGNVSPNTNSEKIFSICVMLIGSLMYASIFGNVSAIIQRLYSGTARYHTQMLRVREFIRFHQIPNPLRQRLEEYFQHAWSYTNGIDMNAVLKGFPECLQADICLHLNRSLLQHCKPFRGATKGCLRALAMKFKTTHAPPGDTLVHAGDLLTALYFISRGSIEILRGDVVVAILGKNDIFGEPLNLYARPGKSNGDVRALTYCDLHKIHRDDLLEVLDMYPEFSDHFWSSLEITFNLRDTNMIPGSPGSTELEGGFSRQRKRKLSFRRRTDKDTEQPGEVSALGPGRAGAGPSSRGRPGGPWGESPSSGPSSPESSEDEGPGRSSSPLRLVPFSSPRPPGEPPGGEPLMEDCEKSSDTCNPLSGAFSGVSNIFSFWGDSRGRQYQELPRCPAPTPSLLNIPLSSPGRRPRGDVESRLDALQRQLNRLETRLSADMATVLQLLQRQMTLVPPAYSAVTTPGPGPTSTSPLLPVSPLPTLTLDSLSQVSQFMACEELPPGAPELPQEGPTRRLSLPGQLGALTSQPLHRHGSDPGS
row,Compound,"hERG current change (%, negative = inhibition) at 10uM [%]"
1,CCc1cc(=O)oc2cc(C)cc(OCC(=O)NCCCn3ccnc3)c12,-55.3
2,CCOC(=O)/C(C#N)=C1\C(=O)N(Cc2ccccc2)c2ccccc21,14.4
3,COCCNC(=O)c1ccc(N2CC3CC(C2)c2cccc(=O)n2C3)c(NC(=O)c2cc(OC)cc(OC)c2)c1 (stereo not drawn),25.9
4,CCC1CCCCN1S(=O)(=O)c1ccc(NC(=O)c2cccnc2)cc1 (stereo not drawn),-26.8
5,CCCCn1nnc(NC(=O)c2ccc(-c3cccc(Cl)c3)o2)n1,-40.8
6,Cc1ccc(C)c(N2CCN(C(=O)C3CCCCN3S(=O)(=O)c3ccc(F)cc3)CC2)c1 (stereo not drawn),-4.92
7,O=S(=O)(c1ccc(N2CCCC2)nc1)N1CCOCC1,-8.57
8,Cc1cccc(C(=O)Nc2ccccc2N2CCN(c3ccc(F)cc3)CC2)c1,7.68
9,Cc1ccccc1-[n+]1c(-c2ccccc2)cc(-c2ccccc2)cc1-c1ccccc1.[O-][Cl+3]([O-])([O-])[O-],-76.3
10,CCc1ccc(C(=O)c2ccccc2C(=O)O)s1,26.6
11,CSc1nc2c(c(=O)[nH]1)C(c1ccccc1Cl)CC(=O)N2 (stereo not drawn),12.8
12,COc1cc2c(cc1OC)C(SC)=NC(C)(C)C2,-5.27
13,N=C1C(=O)OCC1c1cc(Cl)ccc1NC(=O)Nc1ccccc1 (stereo not drawn),7.25
14,COc1ccc(NC(=O)c2cccc(OS(=O)(=O)N(C)C)c2)cc1,-0.332
15,COC(=O)c1sccc1NC(=O)Cn1nnc(-c2ccccc2C)n1,-5.02
16,CCOc1ccc(NC(=O)C/C(C)=N/NC(=O)Cc2ccc(Cl)cc2)cc1,5.53
17,COc1ccc(-n2c(=O)[nH]cc(C(=O)N3CCc4ccccc43)c2=O)cc1,16.2
18,O=C(NC(=O)N1CCN(c2ccc([N+](=O)[O-])cn2)CC1)c1c(Cl)cccc1Cl,8.86
19,COc1ccccc1OCC(=O)Nc1ccccc1C(=O)NCc1cccnc1,-26.5
20,Cc1cccc(C)c1NC(=O)CN(C)C(C)C(=O)NCC(=O)Nc1ccc(F)c(F)c1F (stereo not drawn),-1.83
21,CCOC(=O)COc1ccc(C)cc1-c1ccno1,-19.9
22,COc1cc(C(=O)OCC(=O)c2ccccc2)cc2c1OCCO2,5.28
23,COc1ccc(OCCOCCN2CCN(C)CC2)cc1.O=C(O)C(=O)O,-6.29

row,Compound,"hERG current change (%, negative = inhibition) at 10uM [%]"
1,CCCCCn1c(=O)c(C(=O)NCc2ccco2)c(O)c2ccccc21,15.2
2,CCOc1ccc(C(=O)NCc2ccccc2)cc1Br,-23.6
3,CC1Cc2nc(SCC(=O)NCC3CCCO3)n(-c3ccc(F)cc3)c(=O)c2S1 (stereo not drawn),-14.5
4,O=S(=O)(N1CCOCC1)n1c(Cc2ccccc2)nc2ccccc21,-28.9
5,CCC(=O)NC(NC(=S)Nc1ccccc1Br)C(Cl)(Cl)Cl (stereo not drawn),18.2
6,O=c1c(-c2ccc(F)cc2)coc2c3c(ccc12)OCCO3,-2.89
7,CCCNC(=O)NC1CCCCCCC1,14.1
8,CC(C)(O)c1cc2ccc(C#Cc3ccsc3)cc2c(=O)o1,-4.22
9,Cc1cc(C(=O)NC(CC(C)C)C(=O)O)cc(C)c1[N+](=O)[O-] (stereo not drawn),12.3
10,COc1ccc2c(c1)sc1nc(=O)ccn12,3.21
11,COc1ccc(CNC(=O)C2CCCN(S(=O)(=O)c3ccc(Br)s3)C2)cc1 (stereo not drawn),6.42
12,O=C(CN1CCN(S(=O)(=O)c2ccccc2)CC1)NCCc1ccccc1,11.1
13,CCNC(=O)NNC(=O)C1CC(c2cccs2)=NO1 (stereo not drawn),17.3
14,CCOC(=O)C(=O)N1c2ccccc2C(N(C(=O)C(=O)OCC)c2ccccc2)CC1C (stereo not drawn),-1.14
15,CNC(=O)CSc1nnc(-c2ccco2)n1-c1cc(C)ccc1C,-2.95
16,O=C(CN(C(=O)CCC(=O)Nc1ccccn1)c1ccc2c(c1)OCCO2)NCCc1ccccc1,2.29
17,CCCN(CCC)c1ccc(CC(=O)NC(C)Cc2ccccc2)cc1 (stereo not drawn),-10
18,COc1ccc(C(=O)c2c(C(F)(F)F)oc3c2C(=O)c2ccccc2C3=O)cc1,1.85
19,CCOC(=O)NC(Nc1cc(C)ccn1)(C(F)(F)F)C(F)(F)F,13.6
20,Cc1cccc(Oc2nccc(C(F)(F)F)c2C(=O)Nc2ccc(F)cc2F)c1,4.35
21,CC(C)NC(=O)CSc1nc2[nH]ncc2c(=O)[nH]1,15.6
22,COC(=O)Cc1ccc(NC(=S)NC(C)(C)C)cc1,34.3
23,CN1C(=O)CC(Nc2cccc3cccc(N)c23)C1=O (stereo not drawn),0.686

row,Compound,"hERG current change (%, negative = inhibition) at 10uM [%]"
1,CC(=O)c1cccc(NC(=O)NNC(=O)c2ccc(-c3ccccc3)cc2)c1,10.7
2,CC(=O)N1CCOc2ccc(S(=O)(=O)Nc3cccc(C)c3)cc21,0.427
3,CCN1CCN(CCCNC(=O)c2ccc3c(c2)NC(=O)c2ccccc2S3)CC1,-2.73
4,CCOC(=O)C(Sc1n[nH]c(N)n1)c1ccccc1 (stereo not drawn),11.3
5,Nc1ccnn1Cc1cccs1,-0.225
6,Cc1c(-c2ccccc2)sc2nc[nH]c(=S)c12,11.2
7,C=CCNc1nc(N2CCOCC2)c(C#N)c2c1CN(C)CC2,-14.1
8,O=C(NCCOc1ccccc1Cl)C(=O)c1c[nH]c2ccccc12,13.9
9,O=C(N/N=C/c1c(F)c(F)c(F)c(F)c1F)c1cccc(S(=O)(=O)N2CCOCC2)c1,22.1
10,O=C(NC1CCCCC1)c1c2c(nc3ccccc13)CCC2,20.9
11,O=C(NCCc1c[nH]c2ccccc12)C(=O)NCC1CCCO1 (stereo not drawn),31
12,Cc1ccc(NC(=S)N2CCCC2)cc1C,21.2
13,CC(C)(C)OC(=O)NCc1ccc(CNC(=O)c2nc[nH]c2C(=O)N2CCN(C(=O)OC(C)(C)C)CC2)cc1,-9.67
14,COc1ccc(C(=O)CSC#N)cc1OC,13.3
15,O=C(NN=C1c2ccccc2-c2ccccc21)c1cccc(Br)c1,26.9
16,COc1cccc(CC2(CO)CCN(Cc3ccc(NC(C)=O)cc3)CC2)c1,-50.7
17,Cc1ccc2nc(C)cc(Nc3ccc4c(c3)OCCO4)c2c1.Cl,-58.2
18,O=C(CN(c1cccc(C(F)(F)F)c1)S(=O)(=O)c1ccc(Cl)c([N+](=O)[O-])c1)NCc1ccc(F)cc1,8.84
19,C[CH2][Hg][S]c1ccccc1C(=O)[O-].[Na+],13.8
20,O=S(=O)(Nc1ccc(Cl)nn1)c1ccccc1,12.7
21,O=C(CSC1=NCCN1)Nc1ccccc1[N+](=O)[O-],11.2
22,CC1(C)CC(=O)C2=C(C1)OC(/N=C/N1CCCC1)=C(C#N)C2c1ccccc1 (stereo not drawn),-0.0862
23,COC(=O)c1cc(NC(=O)C2COc3ccccc3O2)cc(C(=O)OC)c1 (stereo not drawn),-29.6

row,Compound,"hERG current change (%, negative = inhibition) at 10uM [%]"
1,CCOC(=O)C1CCN(C(=O)c2ccccc2NS(=O)(=O)c2cc(C)ccc2C)CC1,12.4
2,CC(C)c1ccc(OCC(=O)NCCO)cc1,27.6
3,O=C(O)c1c(-c2ccccc2)c2oc3ccccc3c2[nH]c1=O,-0.736
4,CCOC(=O)CNC(=O)COc1coc(CN2CCN(c3ccccc3F)CC2)cc1=O,12.5
5,CC(C)c1ccc(/C=N/n2cnnc2)cc1,0.305
6,COC(=O)c1ccc(CSc2nc3c(c(=O)n2-c2ccc(Br)cc2)SCC3)o1,6.03
7,CCCCCCSc1nnc(-c2cnn(-c3ccccc3)c2-n2cccc2)n1C,-20.8
8,Cc1ccc(-n2nnnc2-c2cnc(N3CCCC3)nc2C(F)(F)F)cc1,-9.95
9,O=C1C=C(O)c2c(O)cccc2C1=O,15.4
10,FC(F)(F)c1nc(-c2ccncc2)ncc1-c1nnnn1-c1ccccc1,-0.18
11,C=CCN(CC=C)C(=O)C1CCC(C(=O)N(CC=C)CC=C)CC1 (stereo not drawn),5.11
12,CCOC(=O)N1CCN(Cc2cc(Cl)c3cccnc3c2O)CC1,-16.7
13,Cc1ccc(S(=O)(=O)N2CCC(=O)CC2)cc1,10.7
14,CS(=O)(=O)N(CC(=O)Nc1cccc([N+](=O)[O-])c1)c1ccccc1F,16.2
15,Cc1nn2c(NCc3ccccn3)cc(C(C)C)nc2c1-c1ccccc1,11.9
16,O=C1c2ccccc2-c2ccc(C(=O)N3CCOCC3)cc21,-17.3
17,COCCN(C(=O)COC(=O)c1cc2c(s1)CCCC2)c1c(N)n(Cc2ccccc2)c(=O)[nH]c1=O,-0.675
18,COCCNC(=O)C1(C)C=CC2(CCCCC2)N1C(=O)c1ccccc1 (stereo not drawn),5.19
19,Cc1nn(Cc2ccc(Cl)cc2)c(C)c1NC(=O)c1noc2c1CCCCC2,-32.7
20,Cc1c(-c2ccc(OCc3ccccc3)cc2)nc2ccccc2c1C(=O)O,18.8
21,O=C(O)c1cccc(NS(=O)(=O)c2ccc(Cl)c(C(=O)Nc3cccc([N+](=O)[O-])c3)c2)c1,19.7
